Screen size: about 1,100 compounds; about 160 (15%) were called active. The shares of active, inactive and inconclusive entries below differ from those in the screen. Calls follow the shape of the dose curve; as a rule, active = well fitted inhibition curve with a large enough effect; inconclusive = small, poorly fitted or top-dose-only effect; inactive = no such curve, though single readings can be large or run the other way. Where the call is inconclusive, the potency comes from a doubtful curve fit.
target: ATP-dependent DNA helicase Q1 (Homo sapiens) (UniProt P46063); assay: Confirmation qHTS Assay for Inhibitors of RecQ-Like Dna Helicase 1 (RECQ1) - Round 2 Cherry Picks; conditions: recombinant RECQ1 DNA unwinding, red fluorescence; series mostly up to 119 µM; also: nearly all actives have a fitted effect of over 50% in size
Chain of UniProt P46063 (P46063 whole entry, looked up): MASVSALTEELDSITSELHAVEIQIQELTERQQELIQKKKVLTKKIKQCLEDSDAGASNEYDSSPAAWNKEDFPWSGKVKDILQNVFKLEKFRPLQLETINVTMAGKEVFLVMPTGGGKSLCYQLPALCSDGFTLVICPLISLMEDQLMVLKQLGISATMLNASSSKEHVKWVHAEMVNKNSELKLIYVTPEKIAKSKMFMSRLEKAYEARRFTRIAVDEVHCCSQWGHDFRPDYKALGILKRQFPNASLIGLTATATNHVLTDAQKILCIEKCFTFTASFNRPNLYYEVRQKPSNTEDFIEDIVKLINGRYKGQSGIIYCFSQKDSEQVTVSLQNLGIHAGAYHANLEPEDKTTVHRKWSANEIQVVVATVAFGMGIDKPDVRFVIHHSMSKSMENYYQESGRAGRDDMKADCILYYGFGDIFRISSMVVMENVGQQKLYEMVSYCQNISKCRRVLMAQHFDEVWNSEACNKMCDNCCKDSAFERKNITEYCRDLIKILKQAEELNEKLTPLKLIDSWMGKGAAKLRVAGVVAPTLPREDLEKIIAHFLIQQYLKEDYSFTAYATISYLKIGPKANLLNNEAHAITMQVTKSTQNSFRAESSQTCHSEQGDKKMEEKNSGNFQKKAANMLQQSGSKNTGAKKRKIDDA
Method in brief: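 RECQ1T1 (50 nM) was preincubated 15 min at room temperature with compounds in Tris pH 8.0 buffer with 2.5 ug/ml poly(dI-dC). Unwinding of 200 nM TAMRA/BHQ-2 forked duplex with 2 mM ATP was read twice, 2 h apart, normalized to enzyme-free and DMSO controls.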
Potency is read from the fitted curve at half-maximal effect; tags tell the direction and shape of the fitted curve.

Row | SMILES | Potency
1 | CC(=O)OCCNc1nc(-c2ccccc2)nc2ccccc12 | inactive
2 | Cc1cc(=O)oc2c(CN3CCC(C)CC3)c(O)c(Cl)cc12 | inconclusive: 56.2 µM [inhibitor, partial curve, poor fit]
3 | O=c1c(-c2cc(F)cc(F)c2)nc2cnc(N3CCNCC3)nc2n1Cc1ccc(F)cc1 | inconclusive: 44.7 µM [inhibitor, partial curve]
4 | O=C1CCCC/C1=C\Nc1ccc(O)cc1 | inactive
5 | O=C(Nc1ccc(-n2nncc2-c2ccco2)cc1)c1cc2ccccc2oc1=O | inconclusive: 2.24 µM [inhibitor, partial curve, poor fit]
6 | CC(C)n1c(=S)[nH]c2scc(-c3cccs3)c2c1=O | inconclusive: 79.4 µM [inhibitor, partial curve]
7 | CC1=CN2C(=N)/C(=C/c3ccc([N+](=O)[O-])o3)C(=O)N=C2S1 | inconclusive: 79.4 µM [inhibitor, partial curve]
8 | CC(C)c1onc(-c2c(Cl)cccc2Cl)c1COc1ccc(/C=C/c2cccc(C(=O)O)c2)c(Cl)c1 | active: 35.5 µM
9 | C=CCN1C(=O)CS/C1=C(\C#N)S(=O)(=O)c1ccc(C)cc1 | inconclusive: 89.1 µM [inhibitor, partial curve]
10 | COc1ccc2cc(-c3[nH]ncc3CN3CCCN(c4ccccc4)CC3)ccc2c1 | inactive
11 | O=C(OCc1nnc(-c2ccccc2)o1)c1ccc(S(=O)(=O)NCc2ccco2)cc1 | inconclusive: 39.8 µM [inhibitor, partial curve, poor fit]
12 | Cc1ccc(S(=O)(=O)c2cc3c(=O)n4ccccc4nc3n(Cc3ccco3)c2=N)cc1 | inconclusive: 89.1 µM [inhibitor, partial curve, poor fit]
13 | Oc1ccc(Nc2nc(NCC3CCCO3)c3ccccc3n2)cc1 (centres undefined) | active: 39.8 µM
14 | COc1ccc(-c2nc3cnc(N4CCOCC4)nc3n(-c3ccc(OC)cc3)c2=O)cc1 | inactive
15 | O=C1CSC(=S)N1Cc1cccnc1 | inconclusive: 44.7 µM [inhibitor, partial curve]
16 | O=C(NCc1ccco1)c1ccc(S(=O)(=O)N2CCOCC2)cc1 | inactive
17 | COc1cccc(Nc2nc(N)c([N+](=O)[O-])c(NCc3ccccc3)n2)c1 | active: 50.1 µM
18 | N=C1/C(=C/c2coc3ccccc3c2=O)C(=O)N=C2SC(c3ccco3)=NN12 | active: 50.1 µM
19 | COc1ccc(Cl)cc1C(=O)Nc1cccc(-c2ccc3nncn3n2)c1 | inconclusive: 44.7 µM [inhibitor, partial curve]
20 | O=C1NC(=O)/C(=C\c2ccc(O)cc2O)S1 | active: 12.6 µM
21 | C=CCn1c(=O)/c(=C/c2ccc(C)o2)s/c1=C(/C#N)C(=O)c1ccccc1 | inconclusive: 56.2 µM [inhibitor, partial curve, poor fit]
22 | Cc1ccc(-c2nn3c(C)nnc3s2)cc1NC(=O)c1ccc(-c2cccc(Cl)c2)o1 | inconclusive: 56.2 µM [inhibitor, partial curve, poor fit]
23 | Cc1ccc(-n2cccc2/C=C2\C(=N)N3N=C(c4ccco4)SC3=NC2=O)cc1 | inconclusive: 10 µM [inhibitor, full curve]

Row | SMILES | Potency
24 | CCCN(C(=O)c1cc2c(s1)CCC2)c1c(N)n(Cc2ccccc2)c(=O)[nH]c1=O | inactive
25 | COc1ccc(NC(=O)c2cc(-c3ccco3)nc3ccccc23)cc1S(=O)(=O)N1CCOCC1 | inconclusive: 17.8 µM [inhibitor, partial curve]
26 | CCN(CCCCN1C(=O)c2ccccc2C1=O)c1ccc2c(c1)C(=O)N(C)C2=O | inconclusive: 89.1 µM [inhibitor, partial curve, poor fit]
27 | COc1ccc(NC(=O)c2csc(Cc3ccc(Cl)cc3)n2)cc1 | inactive
28 | COc1cc2ccccc2cc1C(=O)NC(=S)Nc1cccc(C(=O)O)c1 | active: 25.1 µM
29 | CCc1nnc(NC(=O)CSc2ccc(-c3ccco3)nn2)s1 | inactive
30 | Cc1ccc(C(=O)OCC(=O)NCc2ccco2)s1 | inconclusive: 50.1 µM [inhibitor, partial curve]
31 | COC(=O)C1=C(C)N(c2cccc3ccccc23)C(=O)C1 | inactive
32 | O=C(NCCCO)c1ccc2nc(-c3ccco3)c(-c3ccco3)nc2c1 | inactive
33 | Cc1ccc(S(=O)(=O)/N=C2/NC(=O)/C(=C/c3ccc(Br)o3)S2)cc1 | inconclusive: 56.2 µM [inhibitor, partial curve, poor fit]
34 | CC1(C)Cc2c(sc3[nH]c(=S)n(Cc4ccco4)c(=O)c23)CO1 | inactive
35 | Cc1ccc(NC(=S)NC(=O)/C=C/c2ccco2)c(O)c1 | inactive
36 | Cc1sc(-n2cccc2)c(C(=O)O)c1C | inconclusive: 39.8 µM [inhibitor, partial curve]
37 | Cc1nn(Cc2c(Cl)cccc2Cl)c(C)c1C(=O)NCc1ccc(C)n1C | inactive
38 | CCc1ccc(N2C(=O)CN(Cc3sccc3C)C2=S)cc1 | inactive
39 | C=C(CO)C1Cc2cc(C(C)=O)ccc2O1 (centres undefined) | inconclusive: 22.4 µM [inhibitor, full curve]
40 | CC(=O)C(Sc1ccc2nnc(-c3ccc(C)cc3)n2n1)C(C)=O | inconclusive: 44.7 µM [inhibitor, full curve, poor fit]
41 | COc1ccc(CCN2CC(C(=O)NC3CCCCC3)CC2=O)cc1OC (centres undefined) | inconclusive: 44.7 µM [inhibitor, partial curve]
42 | Cc1c2c(c(O)c3c(O)cccc13)C(=O)O[C@H]2C1C(N(C)C)C(O)=C(C(N)=O)C(=O)[C@H]1O (some centres undefined) | inconclusive: 0.891 µM [inhibitor, full curve]
43 | CC1(OC(=O)c2cccs2)C(=O)C=C2C=C3CCCN3C=C2C1=O (centres undefined) | inconclusive: 56.2 µM [inhibitor, partial curve, poor fit]
44 | CNc1ccc(/C=C(\CCC(=O)O)c2nc3ccccc3s2)cc1[N+](=O)[O-] | active: 31.6 µM
45 | Cc1cc2nc3c(=O)[nH]c(=O)[nH]c3nc2c([N+](=O)[O-])c1N | active: 44.7 µM
46 | CCN1/C(=C/c2ccc3ccccc3[n+]2CC)C=Cc2ccccc21 | active: 50.1 µM

Row | SMILES | Potency
47 | CCNc1ccc(Br)cc(C(=O)/C=C/c2ccc3c(c2)OCO3)c1=O | inconclusive: 50.1 µM [inhibitor, partial curve, poor fit]
48 | CCc1nnc(NC(=O)c2cc(-c3ccco3)nc3ccccc23)s1 | inconclusive: 56.2 µM [inhibitor, partial curve, poor fit]
49 | C(=C\c1ccco1)/c1ccc2ccccc2n1 | inactive
50 | O=C1Nc2ccccc2SC(c2ccccc2)C1O (centres undefined) | inconclusive: 50.1 µM [inhibitor, partial curve]
51 | Cc1sc(NC(=O)c2ccco2)c(C(c2cccnc2)N2CCN(c3ccc(F)cc3)CC2)c1C (centres undefined) | inconclusive: 56.2 µM [inhibitor, partial curve, poor fit]
52 | COc1cc(C2CC(=O)N3CN(Cc4ccco4)CSC3=C2C#N)ccc1OCc1ccccc1 (centres undefined) | inactive
53 | CC1CCCCC1NC(=O)COC(=O)c1c2c(nc3ccccc13)/C(=C/c1ccco1)CC2 (centres undefined) | inconclusive: 35.5 µM [inhibitor, full curve, poor fit]
54 | O=C(C1CC1)N1CCN=C1SCc1cccc(F)c1 | inconclusive: 100 µM [inhibitor, partial curve, poor fit]
55 | CC1=NN(c2ccc(Cl)c(C(=O)O)c2)C(=O)/C1=C\c1ccc(-c2ccc(C(=O)O)cc2)o1 | inconclusive: 44.7 µM [inhibitor, partial curve]
56 | N=C1/C(=C\c2ccc(-c3cccc(C(=O)O)c3)o2)C(=O)N=C2SC=C(c3ccccc3)N12 | inconclusive: 25.1 µM [inhibitor, full curve]
57 | O=C(Nc1nc2ccc(SC(F)F)cc2s1)c1ccc(NS(=O)(=O)c2ccc(F)c(F)c2)cc1 | inconclusive: 50.1 µM [inhibitor, partial curve]
58 | O=C(O)c1cc(N(Cc2ccccc2O)Cc2ccccc2O)ccc1O | inconclusive: 63.1 µM [inhibitor, partial curve, poor fit]
59 | O=C(COC(=O)c1cc2c(s1)CCC2)Nc1ccc(F)cc1 | inconclusive: 31.6 µM [inhibitor, partial curve]
60 | COc1ccc(-c2nc3cnc(N4CCNCC4)nc3n(Cc3cccc(OC)c3)c2=O)cc1 | inconclusive: 56.2 µM [inhibitor, partial curve, poor fit]
61 | Cc1nc(S/C(=C\c2ccc(-c3ccc(C(=O)O)c(Cl)c3)o2)C(=O)O)n[nH]1 | active: 44.7 µM
62 | COc1ccc(OCC(=O)Nc2nc3ccc(NC(C)=O)cc3s2)cc1 | inconclusive: 39.8 µM [inhibitor, partial curve]
63 | Clc1ccccc1N1CCN(c2ncnc3nc[nH]c23)CC1 | inconclusive: 100 µM [inhibitor, single point]
64 | COc1ccccc1-n1cnnc1SCC(=O)c1cc(C)n(Cc2cccs2)c1C | inactive
65 | COc1cc2[nH]c3c(N4CCN(c5ccccn5)CC4)ncnc3c2cc1OC | inconclusive: 44.7 µM [inhibitor, partial curve]
66 | CSc1ccccc1NC(=O)c1noc2c1CCC2 | inconclusive: 39.8 µM [inhibitor, partial curve]
67 | COc1ccc(Nc2ccc(OC)cc2)cc1 | inactive
68 | O=C(c1cc(-c2ccco2)on1)N1CCCc2ccccc21 | inconclusive: 50.1 µM [inhibitor, partial curve]
69 | Cc1cccc(N=C2NC(=O)/C(=C/C=C/c3ccco3)S2)c1 | inconclusive: 56.2 µM [inhibitor, partial curve]

Reference: PubChem BioAssay AID504841 (National Center for Advancing Translational Sciences (NCATS), 2011)
